Hit rate of the full screen: of about 120,000 compounds, about 5,300 (4.4%) were called active. The inconclusive results got no clear call from the source; some entries with a clear call stand among them for comparison. Calls follow the shape of the dose curve; as a rule, active = well fitted inhibition curve with a large enough effect; inconclusive = small, poorly fitted or top-dose-only effect; inactive = no such curve, though single readings can be large or run the other way. Potencies of inconclusive entries are doubtful fits and often do not repeat.
Assay: qHTS Primary assay for Inhibitors of Plasmodium falciparum Dd2 growth in vitro; also: nearly all actives have a fitted effect of over 65% in size;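 as to activity, negative = inhibition: plate controls were DMSO vehicle for no effect and reference drug for full effect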
Details: P. falciparum Dd2 growth, SYBR Green, 72 h; activity, negative = inhibition: at 28.9 µM (top of the series) unless noted; series mostly up to 28.9 µM
Procedure, shortened: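 Infected erythrocytes (Dd2, 0.3% parasitemia, 2.5% hematocrit final) are added to compound in RPMI-1640/Albumax II medium, grown 72 h at 37C in low oxygen, then lysed with saponin/Triton-X containing SYBR Green and read by fluorescence.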
Potency is read from the fitted curve at half-maximal effect; tags tell the direction and shape of the fitted curve.

Row | SMILES | Potency | activity, negative = inhibition | outcome
1 | Cc1ccc(CNC(=O)c2nnn(Cc3ccc(F)cc3)c2N)cc1 | active: 3.16 µM |  | 
2 | COc1ccc(OCc2ccc(-c3nc(C#N)c(N4CCC(C(N)=O)CC4)o3)o2)cc1 | inconclusive: 11.2 µM [inhibitor, single point] |  | 
3 | Oc1ccc(-c2nc(C3CC3)nc3c2CN(Cc2ccc(C(F)(F)F)cc2)CC3)cc1 | inconclusive: 3.98 µM [inhibitor, single point] |  | 
4 | Cc1ncc2c(c1CNC(=O)c1ccccc1F)CCN(C(=O)Cc1ccc3c(c1)OCO3)C2 |  | inactive: -12.5% | 
5 | O=C1Nc2ccccc2OCC12CCN(CC1CCCCC1)CC2 | inconclusive: 7.94 µM [inhibitor, partial curve, poor fit] |  | 
6 | Fc1cc(Nc2ncc(-c3cccnc3)c3c2OCC3)cc(N2CCOCC2)c1 | inconclusive: 14.1 µM [inhibitor, single point] |  | 
7 | COc1ccc2c(c1)C1(CCN(S(=O)(=O)c3cccc(Cl)c3)C1)C(=O)N2C (stereo unspecified) | active: 11.2 µM |  | 
8 | CC1=C[C@@H](CNCCN2CCNC2=O)[C@H](C(C)C)C[C@H]1Cc1nnc(-c2cccnc2)o1 | inconclusive: 11.2 µM [inhibitor, single point] |  | 
9 | O=C(c1ccc(Nc2nc3ccccc3n3nnnc23)cc1)N1CCN(c2ccc(F)cc2)CC1 | inconclusive: 17.8 µM [inhibitor, single point] |  | 
10 | COc1cc(NC(=O)c2cc3nc(-c4ccc(C)cc4)cc(C(F)(F)F)n3n2)cc(OC)c1OC | inconclusive: 17.8 µM [inhibitor, single point] |  | 
11 | COc1cccc(N2C(=O)NC(=NC3CCCCC3)C23CCN(CCC(C)C)CC3)c1 | inconclusive: 11.2 µM [inhibitor, single point] |  | 
12 | Cc1ccc(C)c(NC(=O)c2cc3n(n2)CC(c2ccc(Cl)cc2)OC3)c1 (stereo unspecified) |  |  | inactive
13 | COc1ccccc1CNC(=O)c1ccc(CSc2nc3ccncc3n2Cc2ccccc2C)cc1 | active: 7.08 µM |  | 
14 | COc1ccc(CNc2nc(-c3ccc(Cl)cc3)nn2C(=O)c2ccccc2)cc1 | inconclusive: 17.8 µM [inhibitor, single point] |  | 
15 | CC(C)c1ccc(NC(=O)C2Cc3ccccc3N2C(=O)c2ccccc2)cc1 (stereo unspecified) |  |  | inactive
16 | O=C(N[C@H]1CCOC[C@H]1C1CCOCC1)c1ccccc1-c1ncc[nH]1 |  | inactive: -24.2% | 
17 | COc1ccccc1Nc1c2c(nc3ccc(NC(=O)/C=C/c4cc(OC)c(OC)c(OC)c4)cc13)CCCC2 | active: 3.98 µM |  | 
18 | CC(C)CCN1CCCC2(C1)C(=NC1CCCC1)NC(=O)N2c1cc(F)cc(F)c1 (stereo unspecified) | active: 10 µM |  | 
19 | Cc1ccc(S(=O)(=O)c2nnn3c2nc(N2CCCCC2)c2ccccc23)cc1 | inconclusive: 7.94 µM [inhibitor, partial curve] |  | 
20 | COc1ccc(-c2cc(-c3cccnc3)c3cncn3c2)cc1OC | active: 10 µM |  | 
21 | COc1ccc(NC(=O)c2c(C)oc3ccn(Cc4cccc(F)c4)c(=O)c23)c(OC)c1 | inconclusive: 2 µM [inhibitor, single point] |  | 
22 | O=C1COCC2(CN1Cc1cccc(OC(F)(F)F)c1)CN(c1ccccc1F)C2 | active: 2.51 µM |  | 
23 | Cc1nncn1C1CCN(S(=O)(=O)c2ccc(F)c(F)c2)CC1 | inconclusive: 0.794 µM [inhibitor, full curve] |  | 

Row | SMILES | Potency | activity, negative = inhibition | outcome
24 | CCOc1ccc(-n2cc(-c3ccccc3)c3c(NCc4ccc(F)cc4)ncnc32)cc1 |  | inactive: -12% | 
25 | CC(C)CCNC(=O)C1(CCO)CCN(c2ncccn2)C1 (stereo unspecified) |  | inactive: 32.6% | 
26 | CCOc1ccc(C2Cn3nnc(-c4nc(-c5ccc(C)c(C)c5)no4)c3CO2)cc1 (stereo unspecified) |  | inactive: 7.69% | 
27 | COc1ccc(-c2cc(C(F)(F)F)nc(SCCC(=O)Nc3ccc(O)cc3)n2)cc1 | inconclusive: 17.8 µM [inhibitor, single point] |  | 
28 | O=C(NC[C@H]1C[C@@H]2CCN1C[C@@H]2CN1CCOCC1)c1ccc(C(F)(F)F)cc1 | inconclusive: 17.8 µM [inhibitor, single point] |  | 
29 | COc1ccc(-c2cc3c(cn2)CN(C)CCN3)cc1OC |  | inactive: 7.23% [at 44.1 µM] | 
30 | CC(=O)N1Cc2ccccc2CC2(CCCN(Cc3cccnc3)C2)C1 (stereo unspecified) | inconclusive: 10 µM [inhibitor, single point] |  | 
31 | Cc1cccc(CNc2ccc3nnc(C)n3n2)c1 |  |  | inactive
32 | COc1ccc(-c2noc(C(=O)NC(C)C)c2[C@H](C)O)cc1 | inconclusive: 35.5 µM [inhibitor, single point] |  | 
33 | Cc1ccc(-n2ncc(C(=O)N3CCN(c4ncccn4)CC3)c2C2CCN(C(=O)OC(C)(C)C)CC2)cc1 |  | inactive: 41.3% | 
34 | O=C(C1CCCC1)N1CCn2c(nn(-c3ccc([N+](=O)[O-])cc3)c2=O)C1 | inconclusive: 4.47 µM [inhibitor, single point] |  | 
35 | Cc1nn2c(c1-c1ccccc1-c1ccccc1)N(Cc1cccc(O)c1)CCC2 | active: 0.794 µM |  | 
36 | CCOc1cc2[nH]c(=O)n(CCCCCC(=O)NC(C)CC)c(=O)c2cc1OCC (stereo unspecified) | inconclusive: 10 µM [inhibitor, single point] |  | 
37 | Cc1cccc(C(=O)N2C(C(=O)NCc3ccccc3)COC23CCN(C(=O)CC(C)(C)C)CC3)c1 (stereo unspecified) | active: 7.94 µM |  | 
38 | Cc1nc(C2CC(O)C2)cc(N(C)Cc2nccn2Cc2ccccc2)n1 (stereo unspecified) |  | inactive: -5.39% | 
39 | Cc1ccc(-c2n[nH]c3c2C(c2cccs2)N(c2ccc(Cl)cc2)C3=O)cc1 (stereo unspecified) | active: 11.2 µM |  | 
40 | Cc1ccc(C)c(C(=O)CSc2nc3cc(C(=O)NC4CCCC4)ccc3c(=O)n2CC2CCCO2)c1 (stereo unspecified) | active: 10 µM |  | 
41 | COCc1cc(C)n(CC(=O)Nc2cccc(C(C)=O)c2)c(=O)c1C#N |  | inactive: 28.5% | 
42 | Cc1ccc(-c2nc3cc(NC(=O)c4cc(Br)ccc4Cl)ccc3o2)cc1 | inconclusive: 17.8 µM [inhibitor, single point] |  | 
43 | CN1C(=O)Cc2ccccc2C1C(=O)NCc1ccc(F)cc1 (stereo unspecified) |  | inactive: -23.8% | 
44 | CCCOc1cccc(C2c3c(oc4cc(C)c(C)cc4c3=O)C(=O)N2CCCN2CCOCC2)c1 (stereo unspecified) | inconclusive: 2 µM [inhibitor, full curve, poor fit] |  | 
45 | CSc1cccc(NC(=O)CN(C)S(=O)(=O)c2ccc3c(c2)CCCN3C(C)=O)c1 |  | inactive: -5.09% | 
46 | CCCN1CCN(C(=O)C2CCc3ncc(-c4ccsc4)n3C2)CC1 (stereo unspecified) |  | inactive: -22.8% | 

— PubChem BioAssay AID1347417 (National Center for Advancing Translational Sciences (NCATS), 2020)
